Test results: the GPR68 mutational scans of Howard et al. (2025)
The least precise scores are not listed. The source holds two more conditions with little spread; they are left out. Read del as a deletion of the residues named and ins as an insertion between two positions. For some assays here: How much ogerin was present is not stated here.

B1: GPR68, Q15743 (parent)
chain: MGNITADNSSMSCTIDHTIHQTLAPVVYVTVLVVGFPANCLSLYFGYLQIKARNELGVYLCNLTVADLFYICSLPFWLQYVLQHDNWSHGDLSCQVCGILLYENIYISVGFLCCISVDRYLAVAHPFRFHQFRTLKAAVGVSVVIWAKELLTSIYFLMHEEVIEDENQHRVCFEHYPIQAWQRAINYYRFLVGFLFPICLLLASYQGILRAVRRSHGTQKSRKDQIQRLVLSTVVIFLACFLPYHVLLLVRSVWEASCDFAKGVFNAYHFSLLLTSFNCVADPVLYCFVSETTHRDLARLRGACLAFLTCSRTGRAREAYPLGAPEASGKSGAQGEEPELLTKLHPAFQTPNSPGSGGFPTGRLA

Columns and labels:
[1] = variants of: B1; experiment: cAMP reporter score (Enrich2 score, wild type = 0); higher = more signal; HEK293T, FACS bins
[2] = variants of: B1; experiment: surface expression score (Enrich2 score, wild type = 0); higher = more signal; HEK293T, FACS bins

Variant	cAMP reporter score ([1]; pH 5.5)	cAMP reporter score ([1]; pH 6)	cAMP reporter score ([1]; pH 6, modulator: ogerin)	cAMP reporter score ([1]; pH 6.5, modulator: ogerin)	surface expression score [2]
MGNITADNSSMSCTIDHTIHQTLAPVVYVTVLVVGFPANCLSLYFGYLQIKARNELGVYLCNLTDADLFYICSLPFWLQYVLQHDNWSHGDLSCQVCGILLYENIYISVGFLCCISVDRYLAVAHPFRFHQFRTLKAAVGVSVVIWAKELLTSIYFLMHEEVIEDENQHRVCFEHYPIQAWQRAINYYRFLVGFLFPICLLLASYQGILRAVRRSHGTQKSRKDQIQRLVLSTVVIFLACFLPYHVLLLVRSVWEASCDFAKGVFNAYHFSLLLTSFNCVADPVLYCFVSETTHRDLARLRGACLAFLTCSRTGRAREAYPLGAPEASGKSGAQGEEPELLTKLHPAFQTPNSPGSGGFPTGRLA [V65D]	-0.54	0.01	-2.05	-0.37	-1.46
MGNITADNSSMSCTIDHTIHQTLAPVVYVTVLVVGFPANCLSLYFGYLQIKARNELGVYLCNLTEADLFYICSLPFWLQYVLQHDNWSHGDLSCQVCGILLYENIYISVGFLCCISVDRYLAVAHPFRFHQFRTLKAAVGVSVVIWAKELLTSIYFLMHEEVIEDENQHRVCFEHYPIQAWQRAINYYRFLVGFLFPICLLLASYQGILRAVRRSHGTQKSRKDQIQRLVLSTVVIFLACFLPYHVLLLVRSVWEASCDFAKGVFNAYHFSLLLTSFNCVADPVLYCFVSETTHRDLARLRGACLAFLTCSRTGRAREAYPLGAPEASGKSGAQGEEPELLTKLHPAFQTPNSPGSGGFPTGRLA [V65E]	-1.54	-1.78	-2.08	-0.825	-2.67
MGNITADNSSMSCTIDHTIHQTLAPVVYVTVLVVGFPANCLSLYFGYLQIKARNELGVYLCNLTCADLFYICSLPFWLQYVLQHDNWSHGDLSCQVCGILLYENIYISVGFLCCISVDRYLAVAHPFRFHQFRTLKAAVGVSVVIWAKELLTSIYFLMHEEVIEDENQHRVCFEHYPIQAWQRAINYYRFLVGFLFPICLLLASYQGILRAVRRSHGTQKSRKDQIQRLVLSTVVIFLACFLPYHVLLLVRSVWEASCDFAKGVFNAYHFSLLLTSFNCVADPVLYCFVSETTHRDLARLRGACLAFLTCSRTGRAREAYPLGAPEASGKSGAQGEEPELLTKLHPAFQTPNSPGSGGFPTGRLA [V65C]	-0.008	-1.68	-0.173	-0.458	-1.21
MGNITADNSSMSCTIDHTIHQTLAPVVYVTVLVVGFPANCLSLYFGYLQIKARNELGVYLCNLTFADLFYICSLPFWLQYVLQHDNWSHGDLSCQVCGILLYENIYISVGFLCCISVDRYLAVAHPFRFHQFRTLKAAVGVSVVIWAKELLTSIYFLMHEEVIEDENQHRVCFEHYPIQAWQRAINYYRFLVGFLFPICLLLASYQGILRAVRRSHGTQKSRKDQIQRLVLSTVVIFLACFLPYHVLLLVRSVWEASCDFAKGVFNAYHFSLLLTSFNCVADPVLYCFVSETTHRDLARLRGACLAFLTCSRTGRAREAYPLGAPEASGKSGAQGEEPELLTKLHPAFQTPNSPGSGGFPTGRLA [V65F]	-0.369	-0.518	-0.362	-0.505	-1.34
